# In the supplement of paper PMC8728848:
# The list shows a part of the results.
# B1: BC2L-D C-terminal domain (Burkholderia cenocepacia), Q39MQ9_BURS3 (protein)
# chain: LVIVDAVTLLSAYPEASRDPAAPTVIDGRHLYVVSPGDAAQLGHNDSRLFTGLSPGDQLHLRETALALRAEVSVLFIRFALKDAGIVAPIELEVRDAATAVPDADDLLHPSCRPLKDHYWRSDVLAAGATTCTADFAVCDRDGTVSGYFRWETSIEIAGSQPDTKQPGFKPSSDRNGNFSLPPNTAFKAIFYANAADRQDLKLFIDDAPEPAATFVGNSEDGVRLFTLNSKGGKIRIEASANGRQSATDARLAPLSAGDTVWLGWLGAEDGADADYNDGIVILQWPIT
# Tests used:
# Experiment in all cases: glycan array binding signal (z-score within array); higher = stronger binding
# Settings in all cases: glycan notation: IUPAC condensed, linker removed
# [1] = target: Gal(b1-4)GlcNAc(b1-2)[Gal(b1-4)GlcNAc(b1-4)]Man(a1-3)[GlcNAc(b1-4)][Gal(b1-4)GlcNAc(b1-2)Man(a1-6)]Man(b1-4)GlcNAc(b1-4)GlcNAc
# Outline: (§1)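 The binding signal is a Z-score computed within each array and averaged over linkers. Arrays of the same protein sequence at different concentrations or buffers were also averaged together. Data originate from 3228 arrays in the Consortium for Functional Glycomics database, kept only where the protein sequence was available.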
# [2] = target: Gal(b1-4)GlcNAc(b1-2)[Gal(b1-4)GlcNAc(b1-4)]Man(a1-3)[GlcNAc(b1-4)][Gal(b1-4)GlcNAc(b1-2)[Gal(b1-4)GlcNAc(b1-6)]Man(a1-6)]Man(b1-4)GlcNAc(b1-4)GlcNAc
# Outline: as §1
# [3] = target: Gal(b1-4)GlcNAc(b1-2)[Gal(b1-4)GlcNAc(b1-6)]Man(a1-6)[Gal(b1-4)GlcNAc(b1-2)Man(a1-3)]Man(b1-4)GlcNAc(b1-4)GlcNAc
# Outline: as §1
# [4] = target: Gal(b1-4)GlcNAc(b1-2)[Gal(b1-4)GlcNAc(b1-6)]Man(a1-6)[GlcNAc(b1-4)][Gal(b1-4)GlcNAc(b1-2)Man(a1-3)]Man(b1-4)GlcNAc(b1-4)GlcNAc
# Outline: as §1
# [5] = target: Gal(b1-4)GlcNAc(b1-3)Gal(b1-3)GlcNAc
# Outline: as §1
# [6] = target: Gal(b1-4)GlcNAc(b1-3)Gal(b1-4)Glc
# Outline: as §1
# [7] = target: Gal(b1-4)GlcNAc(b1-3)Gal(b1-4)GlcNAc
# Outline: as §1
# [8] = target: Gal(b1-4)GlcNAc(b1-3)Gal(b1-4)GlcNAc(b1-3)Gal(b1-4)GlcNAc
# Outline: as §1
# [9] = target: Gal(b1-4)GlcNAc(b1-3)Gal(b1-4)[Fuc(a1-3)GlcNAc(b1-6)]Gal(b1-4)Glc
# Outline: as §1
# [10] = target: Gal(b1-4)GlcNAc(b1-3)Gal(b1-4)[Fuc(a1-3)]GlcNAc(b1-3)Gal(b1-4)[Fuc(a1-3)]GlcNAc
# Outline: as §1
# [11] = target: Gal(b1-4)GlcNAc(b1-3)GalNAc
# Outline: as §1
# [12] = target: Gal(b1-4)GlcNAc(b1-3)[Gal(b1-4)GlcNAc(b1-6)]Gal(b1-4)GlcNAc
# Outline: as §1
# [13] = target: Gal(b1-4)GlcNAc(b1-3)[Gal(b1-4)GlcNAc(b1-6)]GalNAc
# Outline: as §1
# [14] = target: Gal(b1-4)GlcNAc(b1-3)[GlcNAc(b1-6)]Gal(b1-4)GlcNAc
# Outline: as §1
# [15] = target: Gal(b1-4)GlcNAc(b1-6)Gal(b1-4)GlcNAc
# Outline: as §1
# [16] = target: Gal(b1-4)GlcNAc(b1-6)Gal(b1-4)GlcNAc(b1-6)GalNAc
# Outline: as §1
# [17] = target: Gal(b1-4)GlcNAc(b1-6)GalNAc
# Outline: as §1
# [18] = target: Gal(b1-4)GlcNAc(b1-6)[Gal(b1-3)]GalNAc
# Outline: as §1
# [19] = target: Gal(b1-6)Gal
# Outline: as §1
# [20] = target: Gal3S(b1-3)GalNAc
# Outline: as §1
# [21] = target: Gal3S(b1-3)GlcNAc
# Outline: as §1
# [22] = target: Gal3S(b1-3)[Fuc(a1-4)]GlcNAc
# Outline: as §1
# [23] = target: Gal3S(b1-4)Glc
# Outline: as §1
# [24] = target: Gal3S(b1-4)Glc6S
# Outline: as §1
# [25] = target: Gal3S(b1-4)GlcNAc
# Outline: as §1
# [26] = target: Gal3S(b1-4)GlcNAc6S
# Outline: as §1
# [27] = target: Gal3S(b1-4)[Fuc(a1-3)]Glc
# Outline: as §1
# [28] = target: Gal3S(b1-4)[Fuc(a1-3)]Glc6S
# Outline: as §1
# [29] = target: Gal3S4S(b1-4)GlcNAc
# Outline: as §1
# [30] = target: Gal3S6S(b1-4)GlcNAc
# Outline: as §1
# [31] = target: Gal3S6S(b1-4)GlcNAc6S
# Outline: as §1
# [32] = target: Gal4S(b1-4)GlcNAc
# Outline: as §1
# [33] = target: Gal4S6S(b1-4)GlcNAc
# Outline: as §1
# [34] = target: Gal6S(b1-3)GlcNAc
# Outline: as §1
# [35] = target: Gal6S(b1-3)GlcNAc6S
# Outline: as §1
# [36] = target: Gal6S(b1-4)Glc
# Outline: as §1
# [37] = target: Gal6S(b1-4)Glc6S
# Outline: as §1
binder,measurement,setting,value
B1,glycan array binding signal (z-score),[1],-0.161
same,glycan array binding signal (z-score),[2],-0.162
same,glycan array binding signal (z-score),[3],-0.162
same,glycan array binding signal (z-score),[4],-0.163
same,glycan array binding signal (z-score),[5],-0.244
same,glycan array binding signal (z-score),[6],-0.244
same,glycan array binding signal (z-score),[7],-0.242
same,glycan array binding signal (z-score),[8],-0.242
same,glycan array binding signal (z-score),[9],-0.165
same,glycan array binding signal (z-score),[10],0.073
same,glycan array binding signal (z-score),[11],-0.242
same,glycan array binding signal (z-score),[12],-0.241
same,glycan array binding signal (z-score),[13],-0.163
same,glycan array binding signal (z-score),[14],-0.242
same,glycan array binding signal (z-score),[15],-0.248
same,glycan array binding signal (z-score),[16],-0.305
same,glycan array binding signal (z-score),[17],-0.2
same,glycan array binding signal (z-score),[18],-0.242
same,glycan array binding signal (z-score),[19],-0.164
same,glycan array binding signal (z-score),[20],-0.243
same,glycan array binding signal (z-score),[21],-0.203
same,glycan array binding signal (z-score),[22],-0.075
same,glycan array binding signal (z-score),[23],-0.239
same,glycan array binding signal (z-score),[24],-0.241
same,glycan array binding signal (z-score),[25],-0.239
same,glycan array binding signal (z-score),[26],-0.235
same,glycan array binding signal (z-score),[27],-0.177
same,glycan array binding signal (z-score),[28],-0.146
same,glycan array binding signal (z-score),[29],-0.246
same,glycan array binding signal (z-score),[30],-0.243
same,glycan array binding signal (z-score),[31],-0.238
same,glycan array binding signal (z-score),[32],-0.247
same,glycan array binding signal (z-score),[33],-0.243
same,glycan array binding signal (z-score),[34],-0.16
same,glycan array binding signal (z-score),[35],-0.16
same,glycan array binding signal (z-score),[36],-0.243
same,glycan array binding signal (z-score),[37],-0.241
